The other results are listed elsewhere or left out. Shown are side measurements of this screen, not its main read-out; they come without a call. Compounds called inactive in the main read-out are mostly missing here. Potencies come from curve fits of mixed quality, noted in brackets.
Test: qHTS Assay for Lipid Storage Modulators (AID 1519)
Settings: Drosophila S3 cells, BODIPY lipid droplet/cell ratio, laser cytometry, cells loaded with oleic acid
Outline: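 Cells seeded at 5,000 per well were treated with compounds over a concentration series and loaded with oleic acid (400 uM, as added). Lipid droplet fluorescence (488 nm excitation, 500-530 nm channel) was read by laser-scanning cytometry and normalized to 20 uM Triacsin C.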

[1] = measured here: cell count channel max response
[2] = measured here: lipid (BODIPY) channel AC50
[3] = measured here: lipid channel max response
[4] = measured here: cell number channel AC50
Tags tell the direction and shape of the fitted curve.

Row | Compound | max response [1] [%] | AC50 [2] | max response [3] [%] | AC50 [4]
1 | CCNc1ncc2nc(-c3ccc(OC)cc3)c(=O)n(-c3ccc(OC)cc3)c2n1 | 17.2 | 39.8 nM [rising, full curve] | 24.7 | –
2 | COc1ccc(Oc2ncc3nc(CCc4ccccc4)c(=O)n(C[C@H]4CCCO4)c3n2)cc1 | -6.88 | 39800 nM [falling, single point] | -63.1 | –
3 | O=c1c(-c2cccc(Cl)c2)nc2cncnc2n1Cc1ccccc1Cl | 22.1 | 1000 nM [rising, full curve] | 29 | –
4 | O=S(=O)(c1ccccc1)N1CCC2(CCCN(Cc3cc(C(F)(F)F)cc(C(F)(F)F)c3)C2)CC1 | -3.88 | 3550 nM [falling, full curve] | -35.8 | –
5 | COc1cccc(Nc2ncc3nc(-c4ccccc4)c(=O)n(C4CC4)c3n2)c1 | -14.5 | 39800 nM [falling, single point] | -64.1 | –
6 | CN(C)C(=O)c1ccc(-c2nccc(Nc3ccc(F)cc3)n2)cc1 | 19.9 | 891 nM [rising, full curve, poor fit] | 29.6 | –
7 | CC(C)NC(=O)N1CCCC2(CCN(C(=O)c3ccco3)CC2)C1 | 13.2 | 3980 nM [rising, partial curve, poor fit] | 18.5 | –
8 | C=NC(C(=O)NC1C(=O)N2C1SC(C)(C)C2C(=O)O)c1ccccc1 (configuration not stated) | 15.8 | 39800 nM [rising, single point] | 33.8 | –
9 | COc1ccc2c(c1)OC/C(=C/c1ccc(OC)c(OC)c1)C2=O | 4.43 | 398 nM [rising, full curve] | 10.1 | –
10 | CC(=O)N1CCC2(CCCN(c3ccc(-c4ccccc4)cc3)C2)CC1 | 19 | 2000 nM [rising, partial curve] | -1.98 | –
11 | O=C(c1csnn1)N1CCC[C@@]2(CCN(c3cccc(-c4ccccc4)c3)C2)C1 | -7.92 | 3550 nM [rising, partial curve, poor fit] | -16.5 | –
12 | COc1ccccc1CN1CC2(CCN(S(=O)(=O)c3ccccc3)CC2)C1 | 24.7 | 3980 nM [rising, partial curve] | 36.5 | –
13 | COc1ccc(-c2nc3cnc(N4CCN(C)CC4)nc3n(CCC#N)c2=O)cc1 | 26.1 | 2510 nM [rising, full curve, poor fit] | 35.2 | –
14 | COc1ccc(-n2c(=O)c(CCc3ccccc3)nc3cnc(N4CCOCC4)nc32)cc1 | 29.4 | 8910 nM [rising, partial curve] | 36.3 | –
15 | O=C(c1cc(C(F)(F)F)cc(C(F)(F)F)c1)N1CCC2(CC1)CN(Cc1ccncc1)C2 | 15.6 | 12.6 nM [rising, full curve, poor fit] | 20.1 | –
16 | Cn1cccc1C(=O)N1CCC2(CCCN(Cc3nccs3)C2)CC1 | 23.9 | – | 29.4 | 2820 nM [rising, partial curve, poor fit]
17 | COCC(=O)N1CCC2(CCN(Cc3cc(C(F)(F)F)cc(C(F)(F)F)c3)CC2)CC1 | 14.9 | 3550 nM [rising, partial curve, poor fit] | 17.3 | –
18 | Cc1nc2cnc(N3CCOCC3)nc2n(CCc2ccccc2)c1=O | 4.16 | 1120 nM [rising, full curve, poor fit] | -0.317 | –
19 | COc1ccc(-n2c(=O)c(-c3ccc(Cl)cc3)nc3cnc(N4CCOCC4)nc32)cc1 | 19.9 | 178 nM [rising, full curve] | 25.5 | –
20 | C#CCCCCCCCCCCCC(O)CC(O)COC(C)=O (configuration not stated) | 14.5 | 11200 nM [rising, partial curve, poor fit] | 39.7 | –
21 | C[C@H](O)[C@@H]1C(=O)N2C(C(=O)O)=C(SCCN=CN)C[C@@H]12 | 8.17 | 2.51 nM [rising, full curve, poor fit] | 6.98 | –
22 | COc1ccc(-n2c(=O)c(C)nc3cncnc32)cc1 | 16.8 | 50.1 nM [rising, full curve, poor fit] | 30.2 | –
23 | COc1ncc2nc(CCc3ccccc3)c(=O)n(Cc3cccs3)c2n1 | 13.9 | – | 23.2 | 4470 nM [rising, partial curve]
24 | O=c1c(-c2cc(F)cc(F)c2)nc2cnc(Oc3ccccc3)nc2n1C1CC1 | 20.5 | 8.91 nM [rising, full curve, poor fit] | 24.5 | –
